Laboratory results reported in US20090143279A1 (priority 2007, published 2009).
“And” between values parts separate entries of the source, which are not always exact repeats. Equal entries are not always repeated. Where two headings read alike, the source gives them in different places.

Tested on: cellular ATP levels
Settings: for ATP (composite Z-score): normalized score vs mock-treated (DMSO) wells
[1] = composite Z-score vs DMSO wells, Conc 20 μM
[2] = normalized composite Z-score vs mock-treated (DMSO) wells, Conc 20 μM
[3] = composite Z-score vs DMSO, Conc 20 μM
[4] = 20 μM, composite Z-score vs DMSO
[5] = composite Z-score vs mock-treated (DMSO) wells, Conc 20 μM

## CC[C@@]1(O)C[C@H](O[C@H]2C[C@H](N(C)C)[C@H](O)[C@H](C)O2)c2c(cc3c(c2O)C(=O)c2c(O)cccc2C3=O)[C@H]1C(=O)OC [aklavine]
[1]
  ATP: −8.498

## 2-hydroxy-5 (6)epoxy-tetrahydrocaryophyllene
[2]
  ATP: −0.149

## COc1ccc2c(=O)c(CC(=O)O)coc2c1 [anhydrobrazilic acid, reference compound]
[2]
  ATP: −1.204

## C[C@@H]1C[C@@H]([C@H](O)CC2CC(=O)NC(=O)C2)C(=O)[C@@H](C)C1 [Cycloheximide, reference compound]
Composite Z-score vs DMSO, Conc 14.22 μM
  ATP: −1.021
[3]
  ATP: −0.704

## COc1ccc2c(=O)ccoc2c1 [7-methoxychromone]
[3]
  ATP: −0.063

## CCOC(=O)[C@H](CCc1ccccc1)N[C@@H](C)C(=O)N1[C@H](C(=O)O)C[C@H]2CCCC[C@@H]21 [trandoapril]
Composite Z-score vs mock-treated (DMSO) wells, concentration of each compound in μM
  ATP: 0.603

## COc1ccc(-c2coc3cc(O)ccc3c2=O)c(OC)c1O [koparin 2′-methyl ether]
[3]
  ATP: −0.071

## 3beta-hydroxydeoxydesacetoxy-7-oxogedunin
Conc 20 μM
  ATP (composite Z-score): 0.198

## COc1c2c(cc3occ(-c4ccc5c(c4)OCO5)c(=O)c13)OC(C)(C)C=C2 [methyl robustone, reference compound]
[2]
  ATP: −0.638

## ginkgolic acid
[3]
  ATP: 0.489

## C[C@]12CC[C@@H]3c4ccc(O)cc4CC[C@H]3[C@@H]1CC[C@@H]2OC(=O)CCC1CCCC1 [estradiol cypionate]
[1]
  ATP: 0.452

## CC(=O)Oc1c(C)c(C)c2c(c1C)CCC(C)(CCCC(C)CCCC(C)CCCC(C)C)O2 (stereo not drawn) [alpha-tochopheryl acetate]
[4]
  ATP: 0.293

## Cc1cc(O)cc(O)c1C(=O)O [orsellinic acid]
[5]
  ATP: −1.140

## CC(C)CCC[C@@H](C)[C@H]1CC[C@H]2[C@@H]3CCC4CCCC[C@]4(C)[C@H]3CC[C@]12C (stereo partly shown) [cholestane]
[3]
  ATP: 0.220

## O=c1[nH]c(=O)n([C@H]2C[C@H](O)[C@@H](CO)O2)cc1F [floxuridine]
[1]
  ATP: 0.511

## COc1c2c(cc3c1OCO3)CC[N+](C)=C2 [cotarnine]
[5]
  ATP: 1.285

## C[C@@]12CCc3occc3[C@H]1CC[C@@]13C[C@@H](CC[C@H]12)[C@@](O)(CO)C3 [cafestol]
[3]
  ATP: 0.332

## CCCc1occc(=O)c1CCO [2-propyl-3-hydroxyethylenepyran-4-one]
Conc 20 μM
  ATP (composite Z-score): 0.499

## C[C@H]1C(=O)CC[C@@H]2[C@]1(C)CC[C@H]1[C@@]2(C)CC[C@@]2(C)[C@@H]3CC(C)(C)CC[C@]3(C)CC[C@]12C [friedelin]
[3]
  ATP: 0.462

## Cn1cnc2c1c(=O)[nH]c(=O)n2C [theobromine]
[1]
  ATP: 0.392

## COC(=O)[C@@H]1OC(=O)[C@H]2O[C@@]23[C@@]1(C)CCC1[C@@]2(C)CCC(=O)C(C)(C)C2C[C@@H](OC(C)=O)[C@]13C (stereo partly shown) [dihydrogeduninic acid, methyl ester]
Conc 20 μM
  ATP (composite Z-score): 0.519

## CC(=O)O[C@@H]1CC2C(C)(C)C(=O)C3OC3[C@]2(C)C2CC[C@@]3(C)[C@H](c4ccoc4)OC(=O)C4OC43[C@@]21C (stereo partly shown) [epoxygedunin]
Conc 20 μM
  ATP (composite Z-score): 0.227

## O=c1cc(-c2ccc(O)cc2)oc2cc(O[C@@H]3O[C@H](CO)[C@@H](O)[C@H](O)[C@H]3O[C@@H]3OC[C@](O)(CO)[C@H]3O)cc(O)c12 [apiin]
[3]
  ATP: −0.267

## C/C=C(/C)C(=O)O[C@H]1Cc2c(ccc3ccc(=O)oc23)OC1(C)C [selinidin]
Conc 20 μM
  ATP (composite Z-score): −0.419

## CC(=O)O[C@H]1C[C@@H](OC(C)=O)C(C)(C)[C@@H]2C[C@@H](OC(C)=O)[C@]3(C)[C@H](CC[C@@]4(C)[C@H](c5ccoc5)OC(=O)[C@H]5O[C@@]534)[C@@]12C [khivorin]
[5]
  ATP: −0.294

## COc1cc(OC)c2c(c1)OC(c1ccccc1)CC2=O (stereo not shown) [alpinetin methyl ether]
Conc 20 μM
  ATP (composite Z-score): 0.801

## CCCCOc1ccc(C(=O)CCN2CCCCC2)cc1 [dyclonine]
[1]
  ATP: 0.157

## CC(C)=CCc1c(O)cc2occ(-c3ccc4c(c3)OCO4)c(=O)c2c1O [derrubone]
[3]
  ATP: −3.786

## CC1(C)O[C@H]2CC(=O)OC[C@]23[C@H]2CC[C@@]4(C)[C@H](c5ccoc5)OC(=O)[C@H]5O[C@]54[C@]2(C)C(=O)C[C@@H]13 [limonin]
[3]
  ATP: −0.078

## CC(C)c1ccc2c(c1)CCC1[C@](C)(CN)CCC[C@]21C.O=S(=O)(O)O (stereo partly shown) [18-aminoabieta-8,11,13-triene sulfate]
Conc 20 μM
  ATP (composite Z-score): 0.999

## COC(=O)c1c(C)c2c(c(C)c1O)OC(=O)c1c(C)c(Cl)c(O)c(Cl)c1O2 [leoidin]
[3]
  ATP: −0.082

## CC[C@H](CC[C@@H](C)[C@H]1CC[C@H]2[C@@H]3CC=C4C[C@@H](OC(C)=O)CC[C@]4(C)[C@H]3CC[C@]12C)C(C)C [sitosteryl acetate]
[2]
  ATP: 0.613

## O=C(O[C@@H]1Cc2c(O)cc(O)cc2O[C@@H]1c1cc(O)c(O)c(O)c1-c1c([C@H]2Oc3cc(O)cc(O)c3C[C@H]2OC(=O)c2cc(O)c(O)c(O)c2)cc(O)c(O)c1O)c1cc(O)c(O)c(O)c1 [2′,2′-bisepigallocatechin digallate]
[2]
  ATP: 0.573

## C[C@]12CC[C@H]3[C@@H](CC[C@]4(O)C[C@@H](O)CC[C@]34C=O)[C@@]1(O)CC[C@@H]2C1=CC(=O)OC1 [strophanthidin]
  ATP: −0.236
[1]
  ATP: 0.227
[2]
  ATP: 0.044

## COC(=O)[C@@H]1OC(=O)C2OC23[C@@]1(C)CCC1[C@@]2(C)CCC(=O)C(C)(C)C2C[C@@H](OC(C)=O)[C@]13C (stereo partly shown) [dihydrogedunic acid, methyl ester]
[5]
  ATP: 0.122

## C[C@@H]1[C@H](O)[C@@H](C)/C=C/C=C/CC/C=C/C=C/C=C/C=C/C(O[C@H]2O[C@H](C)[C@@H](O)[C@H](N)[C@@H]2O)CC2O[C@](O)(CC(O)C(O)CCC(O)CC(O)CC(O)CC(=O)O[C@H]1C)CC(O)C2C(=O)O (stereo partly shown) [nystatin]
[3]
  ATP: 0.843

## CC(=O)OCC(=O)[C@@]1(O)CCC2C3CC[C@@H]4C[C@H](OC(C)=O)CC[C@]4(C)C3C(=O)C[C@@]21C (stereo partly shown) [tetrahydrocortisone-3,21-diacetate]
[3]
  ATP: 0.067

## CCCCNc1ccc(C(=O)OCCN(C)C)cc1 [tetracaine]
[1]
  ATP: −0.220

## phytol
[2]
  ATP: −0.426

## COc1cc(OC)c2c(c1Cl)O[C@@]1(C(=O)CC(=O)C[C@H]1C)C2=O [griseofulvic acid, reference compound]
Table 4, C2C12 myotubes, 48 h, composite Z-score
  ATP: −1.279
[5]
  ATP: −1.279

## C[C@]12C=CC(=O)C=C1CC[C@@H]1[C@@H]2C(=O)C[C@@]2(C)[C@H]1CC[C@]2(O)C(=O)CO [prednisone]
[1]
  ATP: 0.376
Composite Z-score vs DMSO, Conc 11.16 μM
  ATP: 0.358

## CCOc1ccc(C(=O)C2=C(O)C(OC)C(O)(OC)C=C2)cc1 (stereo not shown)
Conc 20 μM
  ATP (composite Z-score): 0.418

## CCC(N)C(O)c1ccc(O)c(O)c1 (stereo not shown) [ethylnorepinephrine]
Conc 20 μM
  ATP (composite Z-score): 0.711

## CCCCCC1C(=O)CCC1CC(=O)O (stereo not shown) [dihydrojasmonic acid]
[2]
  ATP: 0.502

## COc1ccc(-c2c(O)c3c(OC)c4c(cc3oc2=O)OC(C)(C)CC4)cc1 [dihydrorobustic acid, reference compound]
[3]
  ATP: 2.345

## CC[C@H](C)C(=O)O[C@H]1C[C@H](O)C=C2C=C[C@H](C)[C@H](CC[C@@H](O)C[C@@H](O)CC(=O)O)[C@H]21 [pravastatin, reference compound]
Doses ranging up to 40 μM, 48 hours, FIG. 10
  cellular ATP levels, dose response: little to no effect

## Cc1occc(=O)c1/C=C/O [2-methyl-3-hydroxyethylenepyran-4-one]
[2]
  ATP: −0.367

## CC1(C)S[C@@H]2[C@H](N3C(=O)[C@@H](c4ccccc4)NC3(C)C)C(=O)N2[C@H]1C(=O)O [hetacillin]
[3]
  ATP: 1.231

## COC(=O)/C(=C1/OC(=O)C(c2ccccc2)=C1O)c1ccccc1 [vulpinic acid]
[4]
  ATP: 0.685

## 12a-hydroxy-5-deoxydehydromunduserone [reference compound]
[2]
  ATP: −0.089

## COc1ccc2c(c1)OC/C(=C/c1ccc(OC)c(OC)c1)C2=O [sappanone A trimethyl ether]
Conc 20 μM
  ATP (composite Z-score): −0.015

## NC[C@@H]1O[C@H](O[C@H]2[C@@H](O)[C@H](O[C@@H]3[C@@H](O)[C@H](N)C[C@H](N)[C@H]3O[C@H]3O[C@H](CN)[C@@H](O)[C@H](O)[C@H]3N)O[C@@H]2CO)[C@H](N)[C@@H](O)[C@@H]1O [neomycin]
[3]
  ATP: −1.028

## C[C@@H]1[C@H](O)[C@@H](C)/C=C/C=C/C=C/C=C/C=C/C=C/C=C/[C@H](O[C@@H]2O[C@H](C)[C@@H](O)[C@H](N)[C@@H]2O)C[C@@H]2O[C@](O)(C[C@@H](O)C[C@@H](O)[C@H](O)CC[C@@H](O)C[C@@H](O)CC(=O)O[C@H]1C)C[C@H](O)[C@H]2C(=O)O [amphotericin B]
  ATP: 0.880

## CC(=O)OC1CCC23CC1(C)CCC2C(C)(C)CC3OC(C)=O (stereo not shown) [clovanediol diacetate]
[2]
  ATP: −0.009

## CC(C)=CCCC1(C)C=Cc2c(O)c3c(c(CC=C(C)C)c2O1)OC12C(=CC4CC1C(C)(C)OC2(C/C=C(/C)C(=O)O)C4O)C3=O (stereo not shown) [dihydrogambogic acid]
[5]
  ATP: −8.298

## O=C1OCCN1/N=C/c1ccc([N+](=O)[O-])o1 [furazolidone]
  ATP: 1.071 and 1.326

## CCC(C)C(=O)O[C@@H]1C[C@@]2(C)[C@H](c3ccoc3)OC(=O)CC23OC2(C)O[C@]14[C@]1(C)[C@@H](CC(=O)OC)C5(C)CC1(O)[C@](O)(C5OC(=O)C1(C)OC1C)[C@@H](OC(C)=O)[C@]34O2 (stereo partly shown) [utilin]
[5]
  ATP: 1.189

## COC(=O)C[C@H]1C(C)(C)[C@@H](OC(C)=O)[C@@H]2CC3C4CC(=O)O[C@@H](c5ccoc5)[C@]4(C)CCC3[C@@]1(C)C2=O (stereo partly shown) [dihydrofissinolide]
[5]
  ATP: −0.079

## COP(=S)(OC)Oc1ccc([N+](=O)[O-])cc1 [methyl parathione]
  ATP: 0.145

## CC1(C)C(=O)C=C[C@]2(C)[C@H]3CC[C@@]4(C)[C@H](c5ccoc5)OC(=O)[C@H]5O[C@]54[C@]3(C)C=C[C@@H]12 [7-desacetoxy-6,7-dehydrogedunin]
[2]
  ATP: 2.695

## COc1cc(O)c(C(=O)c2ccccc2)cc1O [cearoin]
[5]
  ATP: −1.727

## N[C@@H](C(=O)N[C@@H]1C(=O)N2C(C(=O)O)=C(Cl)CS[C@H]12)c1ccccc1 [cefaclor]
[3]
  ATP: 0.137
